# Measured values published in the supplement of paper PMC5919970.
# Structures can show the parent of a compound that is named as a salt. The full ranking holds about 2,000 compounds; the median of “fractional viability relative to vehicle” is about 0.91, and the lowest 2% start at about 0.045. The list shows a part of the results.
# System: TYKNU
# Test: fractional viability relative to vehicle; TYKNU is a high-grade serous ovarian cancer line; higher = less growth inhibition
# Details: 72 h
# In short: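 TYKNU control cells or lentiCRISPRv2 knockout derivatives were seeded at 500 cells per well into drug-stamped 384-well plates holding a ~2100-compound library at 2 or 10 μM, in duplicate. Cells were grown at 37 °C in 5% CO2 in RPMI 1640 with 10% FBS, and drug treatment lasted 72 h. Viability was read by Cell Titer Glo luminescence. Duplicate treatment wells were averaged and normalised to duplicate control wells from the same plate position.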
# [1] = 2uM, genotype: DNM1L knockout (sgDNM1L #1)
# [2] = 2uM, genotype: sgCTRLA1 (non-targeting control)
# [3] = 10uM, genotype: DNM1L knockout (sgDNM1L #1)
# [4] = 10uM, genotype: sgCTRLA1 (non-targeting control)
SMILES,fractional viability [1],fractional viability [2],fractional viability [3],fractional viability [4]
CC1=NN(c2ccccc2)C(=O)C1 [Edaravone],1.14,1.02,1.15,0.897
O=C(N[C@H](CO)[C@H](O)c1ccc([N+](=O)[O-])cc1)C(Cl)Cl [Chloramphenicol],0.951,0.965,0.877,0.875
O=C(O)CCNC(=O)c1ccccc1 [Betamipron],0.922,1.11,0.923,0.986
CCC[C@@H]1C[C@@H](C(=O)N[C@@H]([C@H]2O[C@H](SC)[C@H](O)[C@@H](O)[C@H]2O)[C@H](C)Cl)N(C)C1 [Clindamycin HCl],0.974,1.06,1.04,1.16
CCC[C@@H]1C[C@@H](C(=O)N[C@@H]([C@H]2O[C@H](SC)[C@H](O)[C@@H](O)[C@H]2O)[C@H](C)Cl)N(C)C1 [Clindamycin],1.03,1.13,1.01,1.06
CO[C@H]1/C=C\C=C(/C)C(=O)NC2=CC(=O)C(NCCN(C)C)=C(C[C@@H](C)C[C@H](OC)[C@H](O)[C@@H](C)/C=C(\C)[C@@H]1OC(N)=O)C2=O [17-DMAG (Alvespimycin) HCl],0.435,0.239,0.307,0.173
C=C1/C(=C\C=C2/CCC[C@]3(C)[C@@H]([C@H](C)CCCC(C)C)CC[C@@H]23)C[C@@H](O)C[C@@H]1O [Alfacalcidol],0.929,0.97,0.539,0.844
CCN(CC)CCOC(=O)c1ccc(N)cc1Cl [Chloroprocaine HCl],0.794,1.15,0.728,1.05
Cc1c(-c2ccccc2)oc2c(C(=O)OCCN3CCCCC3)cccc2c1=O [Flavoxate HCl],1.01,1.21,0.835,1.03
COc1ccc(O)cc1 [Mequinol],1.03,1.19,1.07,1.09
CCCCCCOC(=O)NC(=N)c1ccc(NCc2nc3cc(C(=O)N(CCC(=O)OCC)c4ccccn4)ccc3n2C)cc1 [Dabigatran Etexilate],0.894,0.873,0.474,0.585
CN[C@@H]1[C@H](O)[C@H](NC)[C@H]2O[C@@]3(O)C(=O)C[C@@H](C)O[C@H]3O[C@@H]2[C@H]1O [Spectinomycin HCl],1.11,1.03,1.25,1.12
NS(=O)(=O)c1cc2c(cc1Cl)NC(C(Cl)Cl)NS2(=O)=O (stereo unspecified) [Trichlormethiazide],0.959,0.967,0.866,0.974
NC(=O)c1cnc(N[C@@H]2CCCC[C@@H]2N)nc1Nc1cccc(-n2nccn2)c1,0.751,0.853,0.185,0.142
C#Cc1cccc(Nc2ncnc3cc(OCCOC)c(OCCOC)cc23)c1 [Erlotinib HCl (OSI-744)],1.08,0.997,0.619,0.575
C#Cc1cccc(Nc2ncnc3cc(OCCOC)c(OCCOC)cc23)c1 [Erlotinib],0.806,1.05,0.573,0.399
COc1ccc(Cn2ccc3ccc(C(=O)NO)cc32)cc1,0.986,1.08,0.723,0.855
CC#CC(=O)N1CC[C@@H](n2c(=O)n(-c3ccc(Oc4ccccc4)cc3)c3c(N)ncnc32)C1,0.731,0.919,0.869,0.819
Cc1onc(-c2ccccc2Cl)c1C(=O)N[C@@H]1C(=O)N2[C@@H]1SC(C)(C)[C@@H]2C(=O)O [Cloxacillin Sodium],0.971,1.14,0.854,1.09
CCc1c2c(nc3ccc(O)cc13)-c1cc3c(c(=O)n1C2)COC(=O)[C@]3(O)CC,0.106,0.11,0.057,0.0603

SMILES,fractional viability [1],fractional viability [2],fractional viability [3],fractional viability [4]
Cc1ccc(NC(=O)c2ccc(CN3CCN(C)CC3)cc2)cc1Nc1nccc(-c2cccnc2)n1 [Imatinib (STI571)],1.18,1.1,0.839,0.867
Cc1ccc(NC(=O)c2ccc(CN3CCN(C)CC3)cc2)cc1Nc1nccc(-c2cccnc2)n1 [Imatinib Mesylate (STI571)],1.08,1.12,0.599,0.612
CC(C)C(=O)Oc1ccc(CO)cc1[C@H](CCN(C(C)C)C(C)C)c1ccccc1 [Fesoterodine Fumarate],0.903,1.15,0.805,0.995
Cc1nn(-c2ccccc2)c(C)c1C=NN1CCN(Cc2ccccc2)CC1,0.866,1.15,0.746,1.24
O=C(O)C(=O)O.[NH-][C@@H]1CCCC[C@H]1[NH-].[Pt+2] [Oxaliplatin],0.737,0.829,0.451,0.487
O=C(NCC1(c2nc(-c3ccccc3)cs2)CCOCC1)c1cccc(-c2noc(C(F)(F)F)n2)c1,0.764,1.05,0.562,0.909
Cc1c(C(=O)NN2CCCCC2)nn(-c2ccc(Cl)cc2Cl)c1-c1ccc(Cl)cc1 [Rimonabant],1.11,1.01,0.575,0.753
C[C@H]1c2cccc(O)c2C(=O)C2=C(O)[C@]3(O)C(=O)C(C(N)=O)=C(O)[C@@H](N(C)C)[C@@H]3[C@@H](O)[C@@H]21 [Doxycycline Hyclate],1.12,1.2,0.54,0.41
COc1cc2c(cc1OC)CC(=O)N(CCCN(C)C[C@H]1Cc3cc(OC)c(OC)cc31)CC2 [Ivabradine HCl],1.08,1.14,0.804,1.02
Clc1ccc(C(Cn2ccnc2)OCc2ccsc2Cl)c(Cl)c1 (stereo unspecified) [Tioconazole],1,1.06,0.761,0.955
COc1cc(C(=O)N2CCC(N3CCN(C)CC3)CC2)ccc1Nc1ncc2c(n1)N(C)c1ccccc1C(=O)N2C,0.584,0.826,0.45,0.389
CCOC(=O)c1cnc2ccc(-c3cncc(NS(=O)(=O)c4ccccc4)c3)cn12,0.176,0.171,0.183,0.108
C[C@@H](Nc1cc(F)cc(F)c1)c1cc(C(=O)N(C)C)cc2c(=O)cc(N3CCOCC3)oc12,0.647,0.847,0.701,0.566
CCCN1CCCC[C@H]1C(=O)Nc1c(C)cccc1C [Ropivacaine HCl],0.944,1.13,0.926,1.13
CC(C)(OCc1nn(Cc2ccccc2)c2ccccc12)C(=O)O [Bindarit],1.13,1.03,0.806,1.01
Cc1cccc(-c2[nH]c(C(C)(C)C)nc2-c2ccc3c(c2)OCO3)n1,0.987,0.98,0.471,0.423
CC(NC(=O)c1ccccc1/N=C/c1c(O)ccc2ccccc12)c1ccccc1 (stereo unspecified) [Sirtinol],1.02,1.16,0.934,1.08
CN1CC(=O)N2[C@H](c3ccc4c(c3)OCO4)c3[nH]c4ccccc4c3C[C@@H]2C1=O [Tadalafil],1.12,1.09,1.13,1.06
CCN(C(=O)c1c(O)c2c(Cl)cccc2n(C)c1=O)c1ccccc1 [Laquinimod],1.22,1.14,0.958,1.08
CCc1nc(N)nc(N)c1-c1ccc(Cl)cc1 [Pyrimethamine],0.792,0.997,0.634,0.546

SMILES,fractional viability [1],fractional viability [2],fractional viability [3],fractional viability [4]
Cc1c(C(=O)NN2CCCCC2)nn(-c2ccc(Cl)cc2Cl)c1-c1ccc(I)cc1,0.975,1.02,0.522,0.82
CC(C)NCC(O)COc1ccc(CCOCC2CC2)cc1 (stereo unspecified) [Betaxolol],1.07,1.01,0.827,0.976
CCOc1nc2cccc(C(=O)OCc3oc(=O)oc3C)c2n1Cc1ccc(-c2ccccc2-c2noc(=O)[nH]2)cc1 [Azilsartan Medoxomil],1.07,1.05,1.05,1.03
COc1cc(OC2CCN(C)CC2)ccc1Nc1ncc2c(n1)n(C1CCCC1)c(=O)n2C,0.688,0.769,0.337,0.315
C#CCN[C@@H]1CCc2ccccc21 [Rasagiline Mesylate],0.932,0.962,0.851,1.05
COc1ccc(NS(=O)(=O)c2sc3ccc(Cl)cc3c2C)cc1N1CCNCC1,0.975,1.08,0.55,0.896
CC(C)n1nc(-c2ccc3oc(N)nc3c2)c2c(N)ncnc21,0.194,0.191,0.181,0.171
O=C(O)c1cc(C(F)(F)F)ccc1N1CC[C@H](OCc2ccccn2)C1,0.659,0.901,0.646,0.674
N[C@@H](Cc1c[nH]c2ccc(O)cc12)C(=O)O [5-hydroxytryptophan (5-HTP)],0.799,1.16,0.804,1.09
CC(=O)Nc1nc2c(Oc3cc(-c4ccc(C(F)(F)F)cc4)ncn3)cccc2s1,0.954,1.19,0.867,1.13
O=C(NO)c1cccc(C(=O)NCCc2ccccc2)c1,0.794,0.895,0.81,0.767
N=C(N)Nc1ccc(C(=O)Oc2ccc3cc(C(=N)N)ccc3c2)cc1 [Nafamostat Mesylate],1.06,0.979,0.95,0.821
NC(=O)c1nc(F)cnc1O [Favipiravir (T-705)],0.808,1.02,0.766,0.755
CCCCc1nc2cc(/C=C/C(=O)NO)ccc2n1CCN(CC)CC [Pracinostat (SB939)],0.146,0.22,0.0823,0.0879
CC1(C)CC(=O)c2c(C(F)(F)F)nn(-c3ccc(C(N)=O)c(N[C@H]4CC[C@H](O)CC4)c3)c2C1,0.318,0.191,0.292,0.202
O=C(O)/C=C/c1ccc(O)c(O)c1 [Caffeic Acid],1.07,1.15,0.772,1.11
COc1cc2nc(N(C)CCCNC(=O)C3CCCO3)nc(N)c2cc1OC (stereo unspecified) [Alfuzosin HCl],1.09,1.05,1.03,0.9
N#CSc1cc(SC#N)c(N)nc1N,0.715,1.01,0.0686,0.0669
N[C@H]1C[C@@H]1c1ccc(-c2cccc(O)c2)cc1,0.733,1.13,0.655,0.979
